{"source": "PubChem BioAssay AID2675", "about": "(National Center for Advancing Translational Sciences (NCATS), 2010)", "note": "Screen size: about 280,000 compounds; about 100 (0.036%) were called active. This list was built around the results that the source calls inconclusive (neither active nor inactive); the mix of calls is not that of the screen. The call rests on the fitted dose curve; in most records, active means well fitted inhibition curve with a large enough effect in the signal ratio, with a control signal flat (not every such curve was filed as active); inconclusive means small, poorly fitted or top-dose-only effect, or effect the other way, or a change in a side signal; inactive means no such curve, though single readings can be large or run the other way; the % refers to the signal ratio. Where the call is inconclusive, the potency comes from a doubtful curve fit. A note “side channel” means that the fit belongs to a control or component signal, not to the main read-out. On the % scale 0 is the no-effect control and ±100 the full control effect; potency means the concentration at half of the fitted maximal effect; tags describe the fitted curve by direction and shape or compound fluorescence and quenching."}
{"target": "Muscleblind-like protein 1 (Homo sapiens) (UniProt Q9NR56)", "sequence (Q9NR56 whole entry, looked up)": "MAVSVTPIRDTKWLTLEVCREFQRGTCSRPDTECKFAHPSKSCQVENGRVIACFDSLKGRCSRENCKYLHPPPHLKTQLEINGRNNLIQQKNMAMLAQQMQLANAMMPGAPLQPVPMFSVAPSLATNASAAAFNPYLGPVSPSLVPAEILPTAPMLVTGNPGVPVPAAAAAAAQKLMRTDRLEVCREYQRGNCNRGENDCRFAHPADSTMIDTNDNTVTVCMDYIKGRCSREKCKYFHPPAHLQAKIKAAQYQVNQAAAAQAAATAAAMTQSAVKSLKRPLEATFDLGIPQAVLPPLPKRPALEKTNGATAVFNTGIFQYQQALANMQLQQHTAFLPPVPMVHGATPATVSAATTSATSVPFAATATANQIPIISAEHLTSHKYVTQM", "test": "qHTS Assay for Inhibitors of MBNL1-poly(CUG) RNA binding", "conditions": "TR-FRET MBNL1-His/biotin-(CUG)12 binding, 665/545 ratio; activity change, negative = inhibition: at 57.5 µM (top of the series)", "procedure,_shortened": "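MBNL1-His + Biotin-(CUG)12, cpd titration 92 nM–58 uM; Tb anti-His Ab 0.055 ng/ul, SA-XL665 5 nM (final); 60 min RT; ratiometric 665/545 nm, Ex 340 nm; normalized to buffer and full-complex controls.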"}
{"smiles": "N=c1c(S(=O)(=O)c2ccccc2)cc2c(=O)n3ccccc3nc2n1CCCN1CCOCC1", "Potency": "inconclusive: 6.31 µM [quencher, full curve]"}
{"smiles": "O=C1CC(C(=O)Nc2ccc(Cl)cc2[N+](=O)[O-])C2(CCCCC2)O1", "note": "(stereo unspecified)", "Potency": "inconclusive: 20 µM [quencher, side channel, partial curve]"}
{"smiles": "CC1(C)CC(=O)C(C(C2=C(O)CC(C)(C)CC2=O)c2ccc([N+](=O)[O-])cc2)C(=O)C1", "note": "(stereo unspecified)", "Potency": "inconclusive: 39.8 µM [activator, single point]"}
{"smiles": "COc1ccc(S(=O)(=O)Nc2ccc3oc(C)c(C(=O)O)c3c2)cc1", "activity change, negative = inhibition": "inactive: -6.87%"}
{"smiles": "Cc1cc(C)nc(N/N=C/c2cccc([N+](=O)[O-])c2)n1", "Potency": "inconclusive: 28.2 µM [quencher, partial curve]"}
{"smiles": "Cc1cc(C)cc(NC(=O)NCC(O)COc2ccc([N+](=O)[O-])cc2)c1", "note": "(stereo unspecified)", "Potency": "inconclusive: 31.6 µM [quencher, side channel, single point]"}
{"smiles": "COc1ccc([N+](=O)[O-])cc1NC(=O)CCN1CCN(C)CC1", "Potency": "inconclusive: 17.8 µM [quencher, side channel, partial curve]"}
{"smiles": "NC(=O)c1cc2ccccc2o/c1=N\\NC(=O)c1ccco1", "activity change, negative = inhibition": "inconclusive: 52.8% [activator]"}
{"smiles": "CN1C2C=C3C(C#N)=C(N)C(C#N)(C#N)[C@@H](c4cccs4)C3C1CC2", "note": "(stereo partly specified)", "Potency": "inconclusive: 28.2 µM [quencher, side channel, single point]"}
{"smiles": "COc1ccccc1/C=C\\C=N\\NC(=O)CCn1nnc2ccccc21", "Potency": "inconclusive: 20 µM [quencher, side channel, partial curve]"}
{"smiles": "Oc1nc(-c2ccc(Cl)cc2)n2ccncc12", "Potency": "inconclusive: 12.6 µM [quencher, side channel, partial curve]"}
{"smiles": "COc1ccc(C(=O)/C=C/Nc2ccc(S(=O)(=O)Nc3cc(OC)nc(OC)n3)cc2)c(OC)c1", "Potency": "inconclusive: 28.2 µM [quencher, side channel, single point]"}
{"smiles": "COc1cccc(/C=N/NC(=S)Nc2cccnc2)c1", "activity change, negative = inhibition": "inactive: 9.74%"}
{"smiles": "O=C(NCc1cccnc1)c1cccn2c(=O)c3sccc3nc12", "Potency": "inconclusive: 2.82 µM [quencher, side channel, full curve, poor fit]"}
{"smiles": "C[C@@H](NC(=O)c1nc[nH]c1C(=O)NCC(=O)OCc1ccccc1)c1ccccc1", "activity change, negative = inhibition": "inactive: -8.04%"}
{"smiles": "CC(C)(O)C#Cc1ccc(C(=O)N2CCN(c3ccc([N+](=O)[O-])cc3)CC2)cc1", "Potency": "inconclusive: 14.1 µM [quencher, side channel, partial curve]"}
